# Source: PubChem BioAssay AID485344 (National Center for Advancing Translational Sciences (NCATS), 2010)
# Hit rate of the full screen: of about 340,000 compounds, about 6,900 (2%) were called active. No stated cut-off is given here; in the data, active means inhibition above about 30%; inactive means below that, where a call was filed. This is a selection; strong and weak results do not stand in their true shares. Where no call is shown, the source filed none.
# Molecular target: D(2) dopamine receptor (Homo sapiens) (UniProt P14416)
# Assay: HTS Assay for Allosteric Antagonists of the Human D2 Dopamine Receptor: Primary Screen for Antagonists; further: 0% is about no effect
# Settings: HEK293 TREx D2 cells, calcium flux, dopamine EC80; at 10 µM; stronger effect = higher value
# Procedure, shortened: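 HEK293 T-REx D2 cells, tet-induced, calcium dye no-wash. Cpd pintool add, 180 s kinetic, then EC80 DA, 180 s kinetic. Ca flux read.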
# Sequence of UniProt P14416 (P14416 whole entry, looked up): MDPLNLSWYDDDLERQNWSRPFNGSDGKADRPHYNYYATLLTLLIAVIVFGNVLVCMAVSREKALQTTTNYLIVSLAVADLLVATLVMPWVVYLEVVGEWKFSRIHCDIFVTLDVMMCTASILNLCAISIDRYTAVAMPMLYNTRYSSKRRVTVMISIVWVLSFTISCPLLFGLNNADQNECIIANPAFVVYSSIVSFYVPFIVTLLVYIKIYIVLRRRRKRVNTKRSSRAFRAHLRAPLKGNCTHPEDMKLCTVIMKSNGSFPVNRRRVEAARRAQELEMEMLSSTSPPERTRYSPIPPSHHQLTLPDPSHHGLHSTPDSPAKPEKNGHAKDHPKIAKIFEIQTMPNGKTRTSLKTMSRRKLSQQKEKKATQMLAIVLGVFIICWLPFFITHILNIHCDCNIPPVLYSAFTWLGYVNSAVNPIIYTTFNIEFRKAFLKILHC
row,Compound,inhibition
1,CCOc1ccc(C2c3c(oc4ccccc4c3=O)C(=O)N2c2nnc(C)s2)cc1OC (stereo unspecified),4.47%
2,Cc1ccccc1CNC(=O)c1cc2cc(S(=O)(=O)N3CCCCC3)ccc2n1C,4.65%
3,COc1ccc(-n2c(-c3ccco3)nc3c(cnn3-c3ccccc3C)c2=O)cc1,-10.9%
4,CC(CNS(=O)(=O)c1ccc2c(c1)CC(=O)N2C)c1ccccc1 (stereo unspecified),7.99%
5,Cc1ccc(C(C)C)c(OCCCn2c(=O)oc3ccccc32)c1,-19.7%
6,CCOC(=O)c1c(C)oc2nc(C)nc(NCCCN3CCN(c4ccc(F)cc4)CC3)c12,11.4%
7,COc1ccc(C(=O)NCCn2cc(SCc3cc(C)ccc3C)c3ccccc32)cc1,-8.19%
8,COc1ccccc1NC(=O)c1ccc2oc(=O)c(S(=O)(=O)c3ccccc3)cc2c1,2.68%
9,COc1cc(C(C)=O)ccc1OCCCN1CCC(Cc2ccccc2)CC1,active: 34.6%
10,CCC(C)NC(=O)c1ccc2c(c1)N(Cc1ccccc1F)C(=O)c1ccccc1S2=O (stereo unspecified),-7.25%
11,Cc1cc(C)cc(NC(=O)c2cnn(-c3ccc(C)c(C)c3)c2C2CCNCC2)c1,7.67%
12,c1ccc(-c2nc3nonc3nc2-c2ccccc2)cc1,active: 40.8%
13,COc1ccccc1CN1CCN(C(=O)c2ccco2)CC1,active: 85.4%
14,Cn1c(=O)oc2cc(S(=O)(=O)NCCC(=O)NCc3ccc(F)cc3)ccc21,-9.97%
15,CCCCn1c(=N)c(C(=O)NC2CCCCC2)cc2c(=O)n3cccc(C)c3nc21,-9.59%
16,O=C(NCc1ccc(F)cc1)c1ccc(Cn2c(SCc3ccc(F)cc3)nc3cccnc32)cc1,0.562%
17,CCN(CCCNC(=O)c1cc2cc3ccc(OC)cc3nc2s1)c1cccc(C)c1,0.347%
18,CC(C)Cn1c(=O)c2ccccc2n2c(CCC(=O)NCc3ccc(Cl)cc3)nnc12,3.47%
19,Cn1nnc2c(NCc3ccccc3)ncnc21,-20.1%
20,O=C(N/N=C/c1cc(Cl)ccc1O)c1ccc(Br)cc1,active: 34.1%
21,CCc1cccc(NC(=O)C(NS(=O)(=O)c2ccc3nc(C)sc3c2)C(C)C)c1 (stereo unspecified),-13.4%

row,Compound,inhibition
1,CC(C)c1ccc2c(c1)NC(c1ccncc1)=NC(c1cccs1)=N2,-4.86%
2,COc1cccc(NC(CNS(=O)(=O)c2ccc(Cl)cc2)c2ccccc2)c1 (stereo unspecified),-3.45%
3,COc1ccc(-c2cc(OC(=O)c3ccccc3)c3c(C)oc(C)c3c(=O)c2)cc1OC,-4.77%
4,CCOc1ccccc1NC(=O)CCc1c(C)nc2c(c(C)nn2-c2ccccc2)c1C,0.263%
5,C#CCSc1nc(-c2ccccc2)c2cc(Cl)ccc2n1,6.69%
6,Cc1ccc(Cl)cc1N1CCN(C(=O)c2ccc3c(c2)N(Cc2ccccc2F)C(=O)c2ccccc2S3=O)CC1 (stereo unspecified),-2.08%
7,Cc1ccc(CNC(=O)c2sc3nc(-c4ccccc4)cn3c2C)cc1,-22.8%
8,O=C(CCS(=O)(=O)c1cc(Br)cc2c1N(C(=O)C1CC1)CC2)Nc1ccc(F)cc1,2.91%
9,COCCNC(=O)c1c[nH]c2ccc(S(=O)(=O)N3CCOCC3)cc2c1=O,active: 46.1%
10,CCOc1ccccc1CNC(=O)c1cnc2sc(N3CCOCC3)nn2c1=O,-2.6%
11,CCN(C(=O)Cn1c(=O)nc(-c2ccccc2)c2cc(Cl)ccc21)c1cccc(C)c1,3.43%
12,CCc1cccc(NC(=O)C2CCC(CNS(=O)(=O)c3ccc4c(c3)CCCC(=O)N4)CC2)c1 (stereo unspecified),8.93%
13,Cc1cncn1CCc1nc2c3ccccc3nc(SCC(=O)Nc3ccc(F)cc3)n2n1,-24.2%
14,CCOc1ccc(CCNC(=O)Cn2ncc3c([nH]c4ccccc43)c2=O)cc1OCC,-26.2%
15,CCc1nc2ccc(C(=O)NCc3ccc(SC)cc3)cc2nc1CC,-21.4%
16,OCCN1CCN(C(c2ccc(Cl)cc2Cl)c2sc3nc(-c4ccco4)nn3c2O)CC1 (stereo unspecified),-9.91%
17,CCOc1ccc(-n2c(SCC(=O)Nc3ccc4c(c3)OCCO4)nc3c([nH]c4ccccc43)c2=O)cc1,18.4%
18,Cc1nc(-c2ccc(Cl)cc2)sc1C1(C)CC(c2cccc(F)c2)=NO1 (stereo unspecified),active: 30.5%
19,Clc1ccccc1-c1nnc(-c2ccccc2CNc2ccc(Br)cc2)o1,-8.88%
20,CN(C)S(=O)(=O)c1cccc(C(=O)NCCOC(=O)c2cc(F)c(F)cc2Cl)c1,active: 34.2%
21,COc1ccc(-c2c(C)nn3c(N4CCN(c5ccccc5F)CC4)cc(C)nc23)cc1OC,-0.202%

row,Compound,inhibition
1,CCc1c(C)sc2c1CCN(C(=O)Nc1cc(C)ccc1OC)C2c1ccc(F)cc1 (stereo unspecified),3.55%
2,Cc1ccc(NS(=O)(=O)c2ccc3[nH]c4c(c3c2)CCCCCC4)cc1,16.9%
3,CCC(=O)N1CCc2cc(CNS(=O)(=O)c3ccc(Br)s3)ccc21,-11.3%
4,CCN1CCN(C(c2ccccc2F)c2c(O)cc(C)n(CCOC)c2=O)CC1 (stereo unspecified),1.68%
5,CCCN(CCC)CCNC(=O)c1sc2nc3n(c(=O)c2c1C)CCCCC3,-0.503%
6,Cc1ccc(C)c(N2C(=O)N(C)c3ccccc3S2(=O)=O)c1,4.17%
7,CC1CCCN(S(=O)(=O)c2ccc(N3CCCCS3(=O)=O)cc2)C1 (stereo unspecified),16.2%
8,C=CCc1ccc(OCc2ccc(C(=O)Nc3ccc(NC(C)=O)cc3)o2)c(OC)c1,-7.23%
9,COc1cccc(NC(=O)Cn2cc(C(=O)c3ccc(F)cc3)c(=O)c3cc(OC)ccc32)c1,-9.24%
10,Cc1cccc(Cn2cnc3c(oc4ccccc43)c2=O)c1,3.16%
11,CC(C)c1ccc(NC(=O)c2ccc(Cn3nc(N4CCN(c5ccccc5)CC4)ccc3=O)o2)cc1,-13.6%
12,O=C(Cn1ncn2nc(-c3cccs3)cc2c1=O)NCc1ccccc1Cl,-8.71%
13,CCc1ccc(N2C(=O)CSC23C(=O)N(Cc2cccc(OC)c2)c2ccccc23)cc1 (stereo unspecified),5.56%
14,O=C(NC1CCCCC1)[C@H](O)[C@@H](O)C(=O)NC1CCCCC1,active: 48.9%
15,CCn1c(=NC(=O)c2ccc(S(=O)(=O)N3CCCC3)cc2)sc2cc(Br)ccc21,15.6%
16,O=C(CN1CCN(c2ccccc2)CC1)c1ccc2cc[nH]c2c1,active: 90%
17,O=c1cc(-c2ccc(F)cc2)nc(SCc2nc(-c3cccc(C(F)(F)F)c3)no2)[nH]1,-19.1%
18,Cc1c(C(=O)N(Cc2cccc(F)c2)C2CCS(=O)(=O)C2)oc2cc(Br)ccc12 (stereo unspecified),-7.33%
19,COc1ccc(NC(=O)CN2C(=O)C3(SCC(=O)N3c3ccccc3)c3ccccc32)cc1Cl (stereo unspecified),-4.34%
